Assay results: the supplement of paper PMC10126150
Sequences with one replicate were seen in a single cluster, so their values are uncertain.

System: ATP
Test: switch fluorescence ratio, 500 uM ATP over buffer (Cy3 cluster intensity, sum of 5 cycles each) (fold (ratio)); higher = stronger signal-on switching upon ATP binding; sequences stand for … in TCGTCGGCAGCGTCAGATGTGTATAAGAGACAGTTTTTTTTTTTTTTTTTTTTTTTTT…TC
Conditions: aptamer strand: ATP DNA aptamer (quencher-CACCTGGGGGAGTATTGCGGAGGAAGG + anchor), 100 nM annealed; ATP concentration: 500 uM; one replicate
How it was run: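 Between each of five buffer/ATP cycles, the flow-cell was stripped with NaOH and re-annealed. Each cycle imaged Cy3-labelled switching-strand clusters, annealed to 100 nM quencher-labelled ATP aptamer on a modified Illumina MiSeq flow-cell, first in selection buffer and then after 15 min with 500 uM ATP at 22 °C. The fluorescence ratio is summed target-cycle over summed buffer-cycle Cy3 intensity per cluster, averaged per switch-domain sequence, with clusters outside 100-1000 RFU excluded.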
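Note: ATP exposure 15 min at 22 °C before imaging.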

AAGGAGGACT was tested, and the switch fluorescence ratio was 0.962.

TGAGCGGGCG was tested, and the switch fluorescence ratio was 0.947.

With GTGGGGATGC the switch fluorescence ratio was 1.32.

In the case of AAGTGGTGAC, the switch fluorescence ratio is reported as 1.

With TTACGATCGA the switch fluorescence ratio was 1.03.

For TCTGTGACTG, the switch fluorescence ratio was 0.983.

AGTGACCCGT showed a switch fluorescence ratio of 1.03.

TGGCCAACAT gave a switch fluorescence ratio of 0.984.

Sequence GGTCAATTGT has a switch fluorescence ratio of 1.

GGAAAAGCTT was tested, and the switch fluorescence ratio was 1.02.

Work on TGTACGTTA yielded a switch fluorescence ratio of 1.25.

Work on AGGAATGGTA yielded a switch fluorescence ratio of 1.01.

Sequence GGAGGGACGT has a switch fluorescence ratio of 0.992.

In the case of CTGGAAGGAG, the switch fluorescence ratio is reported as 1.01.

For ACGACTCTCT, the switch fluorescence ratio was 1.12.

Sequence TGTTTCTTGG has a switch fluorescence ratio of 0.973.

CCGCGTGGCG gave a switch fluorescence ratio of 1.02.

ATGCGGCTAA was tested, and the switch fluorescence ratio was 0.968.

Sequence TCCGTAGGAA has a switch fluorescence ratio of 1.09.

Sequence AGTAAACAAA has a switch fluorescence ratio of 1.02.

Sequence GACTGAGAAC has a switch fluorescence ratio of 1.01.

ATATGGAA gave a switch fluorescence ratio of 0.946.

ACGTTGTTTA gave a switch fluorescence ratio of 1.04.

In the case of TGCGTCTTTT, the switch fluorescence ratio is reported as 0.966.

With AAAAATGCCT the switch fluorescence ratio was 1.13.

Work on CGCTCCTAAG yielded a switch fluorescence ratio of 1.04.

Sequence TGGCTCTTTT has a switch fluorescence ratio of 0.953.

Sequence ATACAGCTAA has a switch fluorescence ratio of 1.05.

Sequence ACAAAGCCCC has a switch fluorescence ratio of 1.08.

ATCTCGACAT was tested, and the switch fluorescence ratio was 0.994.

Sequence GAGGATAGAG has a switch fluorescence ratio of 0.962.

GTTAAACGTA was tested, and the switch fluorescence ratio was 1.1.

In the case of TGTAAGTGGG, the switch fluorescence ratio is reported as 0.991.

For CCTGCGAGAT, the switch fluorescence ratio was 3.84.

Sequence TATGCACCAG has a switch fluorescence ratio of 1.06.

CTAGCGCAAA gave a switch fluorescence ratio of 6.18.

In the case of AATTTCCTTC, the switch fluorescence ratio is reported as 1.06.

In the case of AAAGTGACCC, the switch fluorescence ratio is reported as 1.26.

TCGGTTGATT was tested, and the switch fluorescence ratio was 1.

ACACGTCTT showed a switch fluorescence ratio of 0.983.

TCAGCGGAAA gave a switch fluorescence ratio of 1.06.

With GATAAGCGCT the switch fluorescence ratio was 0.993.

CACTGGGGCT gave a switch fluorescence ratio of 0.978.

With GATATGAGCC the switch fluorescence ratio was 1.03.

Work on TGATGAGGCA yielded a switch fluorescence ratio of 0.951.

TAGAAAGAGA gave a switch fluorescence ratio of 0.95.

With GGGTAGCGAA the switch fluorescence ratio was 0.945.

GCTGTATGTG gave a switch fluorescence ratio of 0.976.

ACAGATCGGG gave a switch fluorescence ratio of 1.04.

For GACCTGTGCA, the switch fluorescence ratio was 1.03.

With TGGTTTTGCT the switch fluorescence ratio was 0.966.

With CGCAGCTTGG the switch fluorescence ratio was 1.55.

CCTAGGTTCT was tested, and the switch fluorescence ratio was 0.984.

CGACATGGAA gave a switch fluorescence ratio of 0.984.

With TTCGTAACTA the switch fluorescence ratio was 1.03.

With AAAAAGGTCA the switch fluorescence ratio was 1.04.

In the case of GACTAAGCAC, the switch fluorescence ratio is reported as 1.39.

TAAGCATTGT showed a switch fluorescence ratio of 1.01.

In the case of ATGGGCGGA, the switch fluorescence ratio is reported as 1.02.

GCCCTGGGAT was tested, and the switch fluorescence ratio was 1.03.

With GCGACTTAAA the switch fluorescence ratio was 1.03.

For GTGATATTTC, the switch fluorescence ratio was 0.96.

GGCTAAAGGG gave a switch fluorescence ratio of 1.

ATCCCTGCCT showed a switch fluorescence ratio of 1.16.

With ATTATCAGC the switch fluorescence ratio was 1.03.

With ACCGATGGGG the switch fluorescence ratio was 0.967.

With TTGGTGTTCC the switch fluorescence ratio was 1.07.

AGATTTAGAA showed a switch fluorescence ratio of 0.979.

For ACACGAGCTA, the switch fluorescence ratio was 0.994.

With GGATCCGCTG the switch fluorescence ratio was 1.89.

In the case of GAAAATCACG, the switch fluorescence ratio is reported as 1.03.

In the case of GCATGGTGGG, the switch fluorescence ratio is reported as 1.01.

For CCTTGTATGT, the switch fluorescence ratio was 1.03.

Sequence GTAACCAGCC has a switch fluorescence ratio of 1.73.

GATCATGAGT showed a switch fluorescence ratio of 0.981.

In the case of AATACCCGCC, the switch fluorescence ratio is reported as 1.31.

Work on CAGTCCACC yielded a switch fluorescence ratio of 1.02.

With ATAGATGTCA the switch fluorescence ratio was 0.999.

With ATCAGGGAGA the switch fluorescence ratio was 0.993.

Sequence CGAGATACCT has a switch fluorescence ratio of 1.22.

In the case of CGACCGAG, the switch fluorescence ratio is reported as 0.978.

With TATCAGGACT the switch fluorescence ratio was 0.981.

With ACAGATTAAG the switch fluorescence ratio was 1.01.

In the case of CCAGTTCAGT, the switch fluorescence ratio is reported as 0.998.

GCCACGACGG showed a switch fluorescence ratio of 1.03.
